ChEMBL document CHEMBL4888484, “Replenishing the malaria drug discovery pipeline: Screening and hit evaluation of the MMV Hit Generation Library 1 (HGL1) against asexual blood stage Plasmodium falciparum ,using a nano luciferase reporter read-out” (2022)
Out of some 150,000 compounds screened, about 540 (0.36%) showed an effect of 50% or more. The list shows a part of the results.

System: Plasmodium falciparum
Test: Primary screen in NF54 nanoGlo assay, in single point, at 2uM, 72h; a lower Z score goes with more inhibition
Assay type: functional, Erythrocyte
Settings: timepoint 72 hour

Row | SMILES | % Inhibition | Z score
1 | C[C@H](O)CN1CCN(C(=O)c2ccccc2-c2ccccc2)CC1 | -4% | 0.78
2 | CC1=NN(c2ccc(C)cc2C)C(=O)C1C(c1cccc(O)c1)C1C(=O)N(c2ccc(C)cc2C)N=C1C (stereo unspecified) | -26% | 3.01
3 | CC(C)(C(=O)N1CCC[C@H](S(C)(=O)=O)CC1)N1CCOCC1 | -9% | 1.31
4 | CCc1nccn1CCc1nc(C)nn1C(C)(C)C | 2% | -0.36
5 | O=C(Nc1cc[nH]n1)[C@H]1CCCN(S(=O)(=O)Cc2ccccc2)C1 | -11% | 1.53
6 | Cc1csc(C(NC(C)CC(=O)N2CCCCCC2)C2CC2)n1 (stereo unspecified) | -6% | 0.89
7 | Cc1ccc(-n2nc(C)c3c(C)cc(OCc4ccc5nonc5c4)nc32)cc1 | 13% | -1.28
8 | O=C(CN1C(=O)c2ccccc2C1=O)N1CCN(c2cc3c(nn2)CCC3)CC1 | -9% | 1.66
9 | CN(C)c1ccc(C(=O)N2CCC[C@]3(C4=CCOCC4)COCC[C@@H]23)cc1 | -17% | 2.19
10 | O=C(c1ccn2c(-c3cccc(Cl)c3)nnc2c1)N1CCN(c2ccccn2)CC1 | 4% | -0.49
11 | c1ccc(-n2nc(C3CCOCC3)nc2[C@H]2CCCN2)cc1 | 6% | -1.09
12 | CNS(=O)(=O)c1cc(C(=O)N2CCCN(CC(=O)N(C)C)CC2)cc(C)c1C | -6% | 0.82
13 | Cc1cccc(-c2cc(N3CCC(C(=O)Nc4cccc5ccccc45)CC3)ncn2)c1 | -9% | 1.7
14 | CC(NC(=O)CCC(O)c1ccc(C(C)(C)C)cc1)c1ncon1 (stereo unspecified) | 3% | -0.39
15 | COc1ccccc1-c1noc(Cc2nc(-c3cccc(Cl)c3)cs2)n1 | -6% | 0.72
16 | COC(=O)c1cccc(-c2noc(-c3cnc4c(c3)ncn4C)n2)c1 | -6% | 0.86
17 | COCCCn1ccc(NC(=O)N[C@@H](C)c2cc3ccccc3o2)n1 | -9% | 1.76
18 | COc1ccccc1OCc1nc(C2(CO)CC2)n(-c2ccncc2)n1 | -8% | 1.52
19 | Cc1ccc(-c2c(CN3CCN(c4ccccc4F)CC3)csc2C)cc1 | -9% | 1.41
20 | CS(=O)(=O)N[C@@H](Cc1ccccc1)c1cccs1 | 31% | -0.58
21 | CN(CC1CCOCC1)C(=O)c1cc(C(F)F)n[nH]1 | -12% | 2.21
22 | O=C(Nc1ccc2nncn2c1)c1ccnn1C1CCCC1 | -4% | 0.58

Row | SMILES | % Inhibition | Z score
23 | CCOC1CC(N(C)c2cc(C)nc3ncnn23)C1(CC)CC (stereo unspecified) | 2% | -0.38
24 | Cc1cc(C(=O)N2CCC[C@H](n3cccn3)C2)c(C)s1 | 4% | -0.74
25 | Cc1ccc(F)cc1CNC(=O)c1ccccc1N1CCC(=O)NC1=O | 22% | -2.83
26 | COC(=O)CC1(NCc2cc(F)c(F)c(F)c2)CCCCC1 | -4% | 0.54
27 | CCCCN(c1ccccc1C(=O)O)S(=O)(=O)c1ccc(OC)c2ccccc12 | -6% | 0.78
28 | COc1cc2c(cc1CN1CCC[C@H](N(C)C)CC1)OCO2 | -10% | 1.99
29 | COCc1noc(Cn2ncc3ccccc32)n1 | -5% | 0.77
30 | O=C1NC2(CCCCCC2)N=C1c1ccc(Cl)c(Cl)c1 | 1% | -0.14
31 | Oc1ccc2ccccc2c1[C@@H]1CCCCN1 | -6% | 0.85
32 | COc1ccc(CNC[C@H]2CCCN(C)C2)cc1OCc1cccnc1 | -17% | 2.04
33 | CN1CC[C@@]2(CCC1=O)CN(C(=O)c1ccc3c(c1)OCO3)CCN2C | -7% | 1.25
34 | Cc1c(NC(=O)CC[C@@H]2N=C(O)c3ccccc3NC2=O)cnn1C | -12% | 1.55
35 | CCn1nnc(C)c1CN1CCC(n2c(=O)[nH]c3cccnc32)CC1 | -7% | 1.04
36 | O=C(NCCNC(=O)c1ccccc1O)Nc1ccccc1N1CCCC1 | -14% | 1.45
37 | CCOCCCN=C(NCCOC)NCc1ccccc1 | -10% | 0.9
38 | C[C@@H](CN(C)Cc1ccc(C(=O)O)c(Cl)c1)c1nccs1 | 0% | -0.09
39 | COC(=O)[C@H](Cc1ccncc1)NC(=O)c1cc(C)sn1 | -12% | 1.65
40 | O=C(Nc1nncc(-c2ccccc2)n1)N[C@H]1CCCCC12OCCO2 | 28% | -3.22
41 | Cc1ccc(Br)cc1CC#N | -2% | 0.32
42 | Cn1ccc(NC(=O)C(=O)c2ccc(-c3ccccc3)cc2)n1 | 34% | -1.19
43 | COc1ccccc1C(=O)Nc1ccc(OC(=O)Cc2c(C)noc2C)cc1 | -5% | 0.61
